In publication PMC12820563, “FoxP3 forms a head-to-head dimer in vivo and stabilizes its multimerization on adjacent microsatellites” one finds binding signal data, which are given here for 18 sequences.

The list shows a part of the results.

In the assay the target is T1, MBP-FoxP1dN (Mus musculus, UniProt P58462 326-579).
T1 sequence: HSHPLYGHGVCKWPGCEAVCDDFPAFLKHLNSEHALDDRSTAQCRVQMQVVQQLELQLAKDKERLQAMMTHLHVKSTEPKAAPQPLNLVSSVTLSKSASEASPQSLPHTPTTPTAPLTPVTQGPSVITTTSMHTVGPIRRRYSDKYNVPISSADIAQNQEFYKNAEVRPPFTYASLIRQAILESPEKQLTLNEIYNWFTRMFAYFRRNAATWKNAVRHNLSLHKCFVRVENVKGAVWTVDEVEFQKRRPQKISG
As to the kind of experiment: PD-seq (MBP pull-down with sequencing); 20 mM Tris-HCl pH 7.5, 100 mM NaCl, 1.5 mM MgCl2, 0.4 uM protein, 0.1 uM dsDNA library, 30 min, room temperature, amylose pull-down; high values mean tight binding. Particulars: protein: recombinant; tags: His6-MBP; chain copies: 2; dsDNA, one strand shown. In a few lines:
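A fragment of mouse FoxP3 or FoxP1 without its N-terminus, carrying a His6-MBP tag and produced in E. coli, was combined at 0.4 µM with a 0.1 µM degenerate double-stranded DNA library filled in with Klenow. The mixture sat for 30 min at room temperature in Tris pH 7.5 buffer containing NaCl and MgCl2. Protein–DNA complexes were captured on amylose resin, washed three times, and the DNA was freed with proteinase K, barcoded by PCR and sequenced on Illumina. Binding is expressed as reads-per-million enrichment of pull-down over input, with replicates pooled.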
For the sequence “GATGATTGTTCTCCCAGCTGATGAATTCCGATGATCGAGTAAACAAATTTTCCTAATCTTTCTGTTCAAGCGCCATCTAC”, the binding signal was 0.884 RPM ratio (pull-down/input).
As for “GATGATTGTTCTCCCAGCTGATGAATTCTCGGTCTCGAGTAAACAAATTTTCCTAATCTTTCTGTTCAAGCGCCATCTAC”, the figure is 0.756 RPM ratio (pull-down/input); as for “GATGATTGTTCTCCCAGCTGATGAATTGAACGACTCGAGTAAACAAATTTTCCTAATCTTTCTGTTCAAGCGCCATCTAC”, 0.624 RPM ratio (pull-down/input).
As for “GATGATTGTTCTCCCAGCTGATGAATTCCTTCACTCGAGTAAACAAATTTTCCTAATCTTTCTGTTCAAGCGCCATCTAC”, the figure is 0.85 RPM ratio (pull-down/input).
For the sequence “GATGATTGTTCTCCCAGCTGATGAATTGGTAGAATCGAGTAAACAAATTTTCCTAATCTTTCTGTTCAAGCGCCATCTAC”, the binding signal is 1.03 RPM ratio (pull-down/input).
Consider “GATGATTGTTCTCCCAGCTGATGAATTACTGCTTTCGAGTAAACAAATTTTCCTAATCTTTCTGTTCAAGCGCCATCTAC”, for which the binding signal was 1.45 RPM ratio (pull-down/input).
The value for “GATGATTGTTCTCCCAGCTGATGAATTATCATTATCGAGTAAACAAATTTTCCTAATCTTTCTGTTCAAGCGCCATCTAC” was 1.23 RPM ratio (pull-down/input).
As for “GATGATTGTTCTCCCAGCTGATGAATTGTCGGGATCGAGTAAACAAATTTTCCTAATCTTTCTGTTCAAGCGCCATCTAC”, the figure is 0.855 RPM ratio (pull-down/input); as for “GATGATTGTTCTCCCAGCTGATGAATTATAAGAATCGAGTAAACAAATTTTCCTAATCTTTCTGTTCAAGCGCCATCTAC”, 1.07 RPM ratio (pull-down/input).
The value for “GATGATTGTTCTCCCAGCTGATGAATTCCGGATTTCGAGTAAACAAATTTTCCTAATCTTTCTGTTCAAGCGCCATCTAC” was 0.807 RPM ratio (pull-down/input); that for “GATGATTGTTCTCCCAGCTGATGAATTGACCCAGTCGAGTAAACAAATTTTCCTAATCTTTCTGTTCAAGCGCCATCTAC” was 0.831 RPM ratio (pull-down/input).
On to “GATGATTGTTCTCCCAGCTGATGAATTATCTCCGTCGAGTAAACAAATTTTCCTAATCTTTCTGTTCAAGCGCCATCTAC”, for which the binding signal is 0.918 RPM ratio (pull-down/input).
The value for “GATGATTGTTCTCCCAGCTGATGAATTTTCTTCCTCGAGTAAACAAATTTTCCTAATCTTTCTGTTCAAGCGCCATCTAC” was 0.86 RPM ratio (pull-down/input); that for “GATGATTGTTCTCCCAGCTGATGAATTCATCGCTTCGAGTAAACAAATTTTCCTAATCTTTCTGTTCAAGCGCCATCTAC” was 0.911 RPM ratio (pull-down/input); that for “GATGATTGTTCTCCCAGCTGATGAATTCTTTTTATCGAGTAAACAAATTTTCCTAATCTTTCTGTTCAAGCGCCATCTAC” was 1 RPM ratio (pull-down/input).
The value for “GATGATTGTTCTCCCAGCTGATGAATTCATTGCTTCGAGTAAACAAATTTTCCTAATCTTTCTGTTCAAGCGCCATCTAC” was 0.935 RPM ratio (pull-down/input).
Turning to “GATGATTGTTCTCCCAGCTGATGAATTTCTAATTTCGAGTAAACAAATTTTCCTAATCTTTCTGTTCAAGCGCCATCTAC”, the binding signal was 1.03 RPM ratio (pull-down/input).
As for “GATGATTGTTCTCCCAGCTGATGAATTGTTCAGATCGAGTAAACAAATTTTCCTAATCTTTCTGTTCAAGCGCCATCTAC”, the figure is 1.12 RPM ratio (pull-down/input).
